This is one part of the list. The main result of the screen is listed elsewhere. These columns were measured beside it and carry no call.
Tests used:
Assay in all cases: Primary Screen for Target Class Profiling of Small Molecule Inhibitors of Methyltransferases
[1] = target: Glycine N-methyltransferase (Homo sapiens) (UniProt Q14749); conditions: purified enzyme, MTase-Glo SAH luminescence; measured here: GNMT inhibition; at 40 µM; stronger effect = lower value
Outline: (§1)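 Each enzyme was reacted with SAM and its substrate, with compounds tested once at 40 uM; SAH formed was read by MTase-Glo luminescence.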

[2] = target: Guanidinoacetate N-methyltransferase (Homo sapiens) (UniProt Q14353); conditions: purified enzyme, MTase-Glo SAH luminescence; measured here: GAMT inhibition; at 40 µM; stronger effect = lower value
Outline: as §1

[3] = target: Histamine N-methyltransferase (Homo sapiens) (UniProt P50135); conditions: purified enzyme, MTase-Glo SAH luminescence; measured here: HNMT inhibition; at 40 µM; stronger effect = lower value
Outline: as §1

[4] = target: Nicotinamide N-methyltransferase (Homo sapiens) (UniProt P40261); conditions: purified enzyme, MTase-Glo SAH luminescence; measured here: NNMT inhibition; at 40 µM; stronger effect = lower value
Outline: as §1

[5] = target: Phenylethanolamine N-methyltransferase (Homo sapiens) (UniProt P11086); conditions: purified enzyme, MTase-Glo SAH luminescence; measured here: PNMT inhibition; at 40 µM; stronger effect = lower value
Outline: as §1
% is scaled to controls: 0 for no effect and ±100 for the full control effect.

SMILES | activity change, negative = inhibition [1] [%] | activity change, negative = inhibition [2] [%] | activity change, negative = inhibition [3] [%] | activity change, negative = inhibition [4] [%] | activity change, negative = inhibition [5] [%]
Cc1nn(-c2ccccc2)c2c1C(C)N(C1CCN([S+](=O)([O-])c3ccccc3)CC1)C2=O (stereo not drawn) | -1.69 | -0.418 | -1.58 | -0.448 | 9.45
CC1(C(=O)NC2CCCCCC2)Cn2c(nc3ccccc32)C(=O)N1Cc1ccccc1F (stereo not drawn) | -4.53 | 3.18 | 1.12 | -1.31 | -4.37
CCCn1c(=O)c2ccccc2n2c(=O)n(CC(=O)c3ccc(C)cc3C)nc12 | -0.982 | 0 | 6.1 | -8.62 | -0.54
CSc1ccc(CCNC(=O)c2cc3n(n2)CCCN(Cc2ccc(Cl)cc2)C3=O)cc1 | -7.25 | 1.38 | -7.75 | -10 | -3.08
CN(C)c1ccc(CNC(=O)c2cc3n(n2)CC(C)(C(=O)NCc2ccccc2)N(C)C3=O)cc1 (stereo not drawn) | 7.66 | 0 | 8.28 | 12.7 | 5.45
COc1ccc(CCNC(=O)CCc2nnc3n(Cc4ccc(F)cc4)c(=O)c4ccccc4n23)cc1OC | -15 | 1.79 | -1.11 | -25.3 | -2.42
O=C(Cn1c(=O)oc2cc(S(=O)(=O)N3CCCC3)ccc21)Nc1ccc(C(F)(F)F)cc1 | -5.26 | 3.52 | 2.31 | 0.274 | -23
COc1cccc(CNc2ccc(S(=O)(=O)Nc3nc4ccccc4s3)cc2)c1O | -23.1 | -7.91 | 8.72 | -49 | -14
O=C(C1CCCC1)N1CCC(n2cnnc2C2CC2)CC1 | -3.35 | -8.7 | -3.29 | -5.44 | 9.32
CCc1cc2c(cc3n2CC(C)(C(=O)NC2CCCCC2)N(Cc2cccc(Cl)c2)C3=O)s1 (stereo not drawn) | -2.86 | 1.51 | -7.77 | -2.84 | -7.39
Cc1ccccc1N1C(=O)c2cc3sccc3n2CC1(C)C(=O)NC1CCCCC1 (stereo not drawn) | 3.14 | -2.62 | 2.72 | 12.3 | 3.81
CC1(C(=O)NC2CCCCCCC2)Cn2c(cc3sccc32)C(=O)N1CCN1CCOCC1 (stereo not drawn) | 4.37 | 1.27 | 8.58 | -2.03 | 3.51
CC(=O)OCC(=O)O[C@@H]1[C@H]2[C@@H](OC(=O)c3ccccc3)[C@@H](C)C[C@]2(O)[C@H](OC(C)=O)C2(C)[C@H]3CC(C)(C)C(=O)[C@@H]3CC1(OC(C)=O)[C@@H]2OC(C)=O (stereo partly drawn) | 1.37 | 2.06 | 7.46 | -11.5 | 4.5
CCCNS(=O)(=O)c1ccc2[nH]c(=O)[nH]c2c1 | 2.14 | 0.814 | 1.38 | -1.09 | -5.46
CCOC(=O)c1ccc(OCCN2C[C@H](O)[C@@H](O)[C@H](O)[C@H]2CO)cc1 | 2.43 | -2.84 | 10.8 | -7.38 | 4.23
O=C1NC(=O)C(c2cnc3ccccn23)=C1c1cn2c3c(cccc13)CN(C(=O)N1CCOCC1)CC2 | -26.6 | 8.95 | -17.9 | -17.9 | -10.9
Cc1cc(C)cc(NC(=O)CCc2nnc3n(CC(C)C)c(=O)c4ccccc4n23)c1 | 0.991 | -0.329 | 9.45 | 7.27 | -1.97
COc1nccc(N2CCC(CC(=O)N3CCN(C(C)=O)CC3)CC2)n1 | -3.12 | -5.69 | -5.84 | -6.75 | -4.78
O=C(O)CCC1CCCN(S(=O)(=O)c2ccc(F)cc2)C1 (stereo not drawn) | -2.23 | -7.75 | -1.99 | -3.54 | -2.04

SMILES | activity change, negative = inhibition [1] [%] | activity change, negative = inhibition [2] [%] | activity change, negative = inhibition [3] [%] | activity change, negative = inhibition [4] [%] | activity change, negative = inhibition [5] [%]
CC(C)N1C[C@H](O)C[C@H]1c1nnc2n1CCN(C(=O)c1ccco1)CC2 | 0.194 | -1.39 | 0.557 | 0.441 | 4.05
COc1ccc(CNC(=O)Nc2ncc([N+](=O)[O-])s2)cc1 | 0.462 | 0.609 | 6.07 | -10.9 | 2.54
COCCCNC(=O)c1cc2n(n1)CC(C)(C(=O)NCc1ccc(C)cc1)N(C)C2=O (stereo not drawn) | -0.1 | 0 | 0.043 | -0.415 | 3.34
CC(=O)OC(C)(C)/C=C/C(=O)[C@](C)(O)C1[C@H](O)C[C@@]2(C)[C@@H]3CC=C4[C@@H](C[C@H](O[C@@H]5O[C@H](CO)[C@@H](O)[C@H](O)[C@H]5O)C(=O)C4(C)C)[C@]3(C)C(=O)C[C@]12C (stereo partly drawn) | 0.991 | -0.82 | 3.26 | -11.1 | 4.86
COCCNc1nc2c(S(=O)(=O)c3ccc(C(C)C)cc3)nnn2c2ccccc12 | -4.02 | -0.804 | -2.93 | -15.7 | -5.91
O=C(O)c1ccc2c3c1cccc3c(=O)n1c3ccccc3nc21 |  | -8.28 |  | -21.9 | -8.86
Cn1c2ccccc2c2c3c(c4c5ccccc5n(CCC#N)c4c21)CNC3=O | 2.33 | -12.5 | 9.98 | -43.8 | -13.7
CCCn1c(=O)c2ccc(C(=O)NC3CCCCC3)cc2n2c(SCc3cccc(OC)c3)nnc12 | 6.06 | 0 | 9.38 | 0.528 | 1.97
CCc1ccc(C(=O)Nc2cc(CN3CCN(C)CC3)cc(C(F)(F)F)c2)cc1C#Cc1cnc2ccnn2c1 | 5.03 | 12.4 | -12.8 | -2.89 | 6.77
O=C(NC1CCCCC1)c1ccc2c(=O)nc3c(-c4ccccc4F)n[nH]n3c2c1 | -24 | 2.75 | -2.46 | -0.986 | -3.45
C=C1CC23CCC4[C@@](C)(CCC[C@@]4(C)C(=O)O)C2CCC1C3 (stereo partly drawn) | -4.8 | -10.1 | 3.42 | -21.6 | -12.2
Nc1ncnc2c1ncn2CCNCCCCCO | 3.8 | 9.94 | 4.44 | -7.01 | 0.982
CCS(=O)(=O)N(Cc1cccnc1)c1cccc(-c2ccc(C#N)cc2)c1 | 4.13 | 1.65 | 2.7 | -18.7 | -7.38
CCS(=O)c1nc(-c2cccc(OCc3ccccc3)c2)cc(C(F)(F)F)n1 (stereo not drawn) | -7.79 | -2.34 | 0.03 | -27.7 | -11.1
CSc1ccc(CN2C(=O)c3ccc(-c4ccco4)n3CC2(C)C(=O)NC2CCCCC2)cc1 (stereo not drawn) | -2.97 | 0.455 | -0.167 | -0.112 | 1.45
COc1ccc(-c2cn(C)c(=O)n3cc(CN4CCNC(=O)C4)nc23)cn1 | -7.43 | -10.4 | -4.38 | -15 | -9.12
COCCC1(NC(=O)c2ccccc2)CCN(Cc2ccc(F)cc2F)CC1 | -1.21 | -0.337 | 1.5 | -1.12 | 3.52
CCCN1C(=O)c2cc(C(=O)NCc3ccccc3OC)nn2CC1(C)C(=O)NC1CCCC1 (stereo not drawn) | -2.05 | 2.42 | -4.03 | -2.62 | -1.46
